The list shows a part of the results.
The sequences below were run on T1, Caupolican (Caup) homeodomain DNA-binding domain (assay: PBM E-score (8-mer, recovered from the published 9-mer minima) (E-score (dimensionless, -0.5 to 0.5)); Drosophila protein; higher = stronger relative binding preference, active = 0.31 or more).
T1 sequence: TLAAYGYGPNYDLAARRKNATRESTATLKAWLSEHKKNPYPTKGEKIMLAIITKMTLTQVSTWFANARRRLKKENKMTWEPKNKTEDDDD
Outline: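 Caup's homeodomain DNA-binding domain (residues 214-303) was produced by in vitro transcription and translation and applied at 100 nM to custom-designed protein binding microarrays. Each value is an enrichment score giving relative binding preference for a short DNA word; higher means stronger. Published 9-mer scores were the minimum of their two constituent 8-mer scores, and the 8-mer values were recovered from those minima. A cutoff of 0.31 marks candidate binding sequences.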

| Sequence | PBM E-score |
| --- | --- |
| CAGGCTCC | inactive: -0.187 |
| AACCATCC | inactive: -0.042 |
| AACCTACC | inactive: -0.0822 |
| AATACGAG | inactive: 0.118 |
| AATGAACG | ≥ 0.166 |
| AAAGCTGT | inactive: 0.0337 |
| GCCAATAA | inactive: 0.0616 |
| CTTCTTAC | inactive: -0.081 |
| CCCGGCCC | inactive: -0.324 |
| TATAAAGA | inactive: 0.0619 |
| ACTAAGTC | inactive: 0.0128 |
| ACTATCGC | inactive: 0.0186 |
| GCGGGGCC | inactive: -0.3 |
| ACAGTCCG | inactive: 0.0105 |
| CGTATTAA | inactive: 0.0874 |
| ACCCTATG | inactive: 0.0592 |
| AGCTAGGG | inactive: -0.157 |
| ACTCTCGA | inactive: -0.0149 |
| CAGCCCAC | inactive: -0.188 |
| AATTGTGG | inactive: 0.0524 |
| ACAGGTCG | inactive: 0.025 |
| AACCAACC | inactive: 0.0365 |
| ATAGTTAC | inactive: 0.256 |
| CTACACTA | inactive: 0.201 |

| Sequence | PBM E-score |
| --- | --- |
| GGTGTAAA | inactive: 0.24 |
| CTTACTTA | inactive: 0.0364 |
| CACGTTAC | inactive: 0.117 |
| CTGTAGGC | inactive: -0.00926 |
| TCTCATCA | inactive: 0.0438 |
| ATTAATCG | inactive: 0.0904 |
| GTGGGGCA | inactive: -0.247 |
| ATCACTTA | inactive: 0.0712 |
| GGCTCTGA | inactive: -0.0698 |
| ATTATCCA | ≥ 0.149 |
| CTGTGTTA | inactive: 0.259 |
| GGTTTCTA | inactive: -0.0224 |
| CCGGCCAA | inactive: -0.219 |
| GTCGTTCA | inactive: 0.0698 |
| GATTTAAC | inactive: 0.0609 |
| CTACGGCA | inactive: -0.0814 |
| ACGATACT | inactive: 0.09 |
| ATGCGTAG | inactive: 0.0201 |
| AATGCCAG | inactive: -0.111 |
| CCTGCATC | inactive: -0.0792 |
| ATTATAGC | inactive: -0.0256 |
| ATGCCACC | inactive: -0.161 |
| CGGCGAGA | inactive: -0.133 |
| CTACATAC | inactive: 0.286 |

| Sequence | PBM E-score |
| --- | --- |
| AGTACGAA | inactive: 0.0992 |
| TAGTCGAA | inactive: 0.114 |
| GCTGGCGA | inactive: -0.156 |
| CGGAGCAG | inactive: -0.196 |
| ATGCCTCA | inactive: -0.045 |
| CAGTGGAC | inactive: -0.0371 |
| CAACAACA | active: 0.408 |
| GTAGTAGA | inactive: 0.0981 |
| CGCCAGCA | inactive: -0.18 |
| TATATGCA | inactive: 0.141 |
| TCAGATAA | inactive: 0.0965 |
| CGAAGAGA | inactive: -0.135 |
| AGGCATCA | inactive: -0.0707 |
| CCGCACCC | inactive: -0.234 |
| CGCCGACC | inactive: -0.2 |
| ACGCCCAG | inactive: -0.163 |
| GGCGGGCA | inactive: -0.243 |
| ACGGACCT | inactive: -0.0478 |
| AGGAAGCG | inactive: -0.0958 |
| AGATCGCA | inactive: 0.0132 |
| AACAGTCC | inactive: -0.0302 |
| GGGGTAAA | inactive: -0.0802 |
| AGTAGGAG | inactive: -0.0818 |
| AGAAGGTG | inactive: 0.0532 |

| Sequence | PBM E-score |
| --- | --- |
| GGGACTGA | inactive: -0.121 |
| CTGGATGA | inactive: -0.0479 |
| CCGCTAGA | inactive: -0.16 |
| AGAAAGCT | inactive: -0.0149 |
| GACATACC | inactive: 0.169 |
| ATACACTG | inactive: 0.183 |
| GCTGGGAC | inactive: -0.121 |
| ACACTCGG | inactive: 0.00511 |
| AATCACTG | inactive: 0.0918 |
| GTATGAAC | inactive: 0.154 |
| AATCTTTC | inactive: -0.0773 |
| GCACCCTA | inactive: -0.0601 |
| AATCCGTA | inactive: 0.0362 |
| CGGTGCGC | inactive: -0.232 |
| CACTGCTC | inactive: -0.0549 |
| GGTTATAC | inactive: 0.0489 |
| CACGTCTA | inactive: 0.106 |
| CGCACGAG | inactive: -0.139 |
| CTATACAG | inactive: 0.0968 |
| AGTTCTTA | inactive: 0.0818 |
| ATATACCC | inactive: 0.125 |
| ATGAGAAT | inactive: 0.0775 |
| CGCGAGCG | inactive: -0.225 |
| AAGACACT | inactive: 0.0837 |

| Sequence | PBM E-score |
| --- | --- |
| AGGTCTGG | inactive: -0.0688 |
| GTAACTGA | inactive: 0.0782 |
| CGAGCATA | inactive: -0.0162 |
| CAAGGCTC | inactive: -0.132 |
| CCCGTCCC | inactive: -0.238 |
| GGATGCAA | inactive: 0.0225 |
| CGAAAAAC | inactive: 0.00524 |
| GTTGTGGA | inactive: 0.047 |
| AAGTGCCA | ≥ 0.0678 |
| AAACATAT | active: 0.325 |
| CAGCGTAA | inactive: 0.0554 |
| CCACAGTC | inactive: -0.0613 |
| CGATCGTC | inactive: -0.0814 |
| TCAACCGA | inactive: -0.0397 |
| CAGTATGG | inactive: -0.061 |
| AAACTGGA | inactive: 0.0284 |
| CATTACAA | inactive: 0.288 |
| ATAGGGGC | inactive: -0.172 |
| CACCAGTA | inactive: 0.0717 |
| GCAGTGGC | inactive: -0.277 |
| AGAGACGA | inactive: -0.0329 |
| CCGTGAGC | inactive: -0.127 |
| ACCGTTCC | inactive: -0.109 |
| AATTATGT | inactive: 0.308 |

| Sequence | PBM E-score |
| --- | --- |
| AAACGTCG | inactive: -0.0455 |
| ACTACGCG | inactive: -0.0102 |
| AGACCACA | inactive: -0.0303 |
| CCGAATCG | inactive: -0.108 |
| AGAAGAGC | inactive: -0.0801 |
| GAACTGGC | inactive: -0.227 |
| CTCCACTA | inactive: -0.0453 |
| AATCGCGT | inactive: 0.0224 |
| ATCAGTTC | inactive: -0.00132 |
| AGATCCAG | inactive: -0.031 |
| GAGAGCTC | inactive: -0.215 |
| CATTCGCA | inactive: 0.0559 |
| GAATGTGA | inactive: 0.0309 |
| TCACCTAA | inactive: 0.0557 |
| AATCGGTA | ≥ 0.149 |
| AGTTGGAA | inactive: -0.00767 |
| CTCAAAGC | inactive: -0.174 |
| AAGGCCCT | inactive: -0.124 |
| CCCACCAA | inactive: -0.152 |
| ATTAATAG | inactive: 0.129 |
| AGTCGCAA | inactive: 0.0168 |
| CTGGCTGA | inactive: -0.166 |

— the supplement of paper PMC3724861
